{"source": "paper PMC5892938", "note": "This is one part of the list. At the low end of the ranking the order means little."}
{"target": "GST-SBP-SLBP (stem-loop binding protein) (UniProt Q14493)", "assay": "targeted RNA Bind-n-Seq;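 also: DESeq read counts versus GST-SBP nonspecific binding control pulldown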", "settings": "RBNS binding buffer: 25 mM Tris pH 7.5, 150 mM KCl, 3 mM MgCl2, 0.1% Tween, 0.5 mg/mL BSA, 1 mM DTT; 27 nM protein, 750 pM RNA pool; temperature not stated; high values mean tight binding"}
{"sequence": "GGUCACGUCUCAAUCAACUCUUUUUCAGGAGUUUACUCCUGCUUAUUCAACAGCUCGCAGUCAAG", "binding signal (log2 fold change)": 0.000858}
{"sequence": "GGUCACGUCUCAAUCAACUCAUCCUCCAGGGAAACCCCUGGCAAUUUCAACAGCUCGCAGUCAAG", "binding signal (log2 fold change)": 0.0192}
{"sequence": "GGUCACGUCUCAAUCAACUCUUCUUCCAGGGAAAACCCUGGCUUUUUCAACAGCUCGCAGUCAAG", "binding signal (log2 fold change)": -0.0294}
{"sequence": "GGUCACGUCUCAAUCAACUCUUUUUCAGGAGUUUUCUCCUGUAAUGUCAACAGCUCGCAGUCAAG", "binding signal (log2 fold change)": 0.0264}
{"sequence": "GGUCACGUCUCAAUCAACUCAAUCUCAGGAGUUUACUCCUGCUAAGUCAACAGCUCGCAGUCAAG", "binding signal (log2 fold change)": 0.0635}
{"sequence": "GGUCACGUCUCAAUCAACUCAUCCUCAGGAGUUUCCUCCUGUAAUUUCAACAGCUCGCAGUCAAG", "binding signal (log2 fold change)": 0.0333}
{"sequence": "GGUCACGUCUCAAUCAACUCUUUCCCAGGAGUUUACUCCUGCUUUUUCAACAGCUCGCAGUCAAG", "binding signal (log2 fold change)": 0.0401}
{"sequence": "GGUCACGUCUCAAUCAACUCUAAAGAGGGGGGGAAAACCCCUUUGCCCUCAUAAUCAACAGCUCGCAGUCAAG", "binding signal (log2 fold change)": -0.0442}
{"sequence": "GGUCACGUCUCAAUCAACUCAAUCUCAGGAGUUUCCUCCUGCUAAUUCAACAGCUCGCAGUCAAG", "binding signal (log2 fold change)": -0.142}
{"sequence": "GGUCACGUCUCAAUCAACUCUUUCUCCAGGGAAAGCCCUGGUAAUGUCAACAGCUCGCAGUCAAG", "binding signal (log2 fold change)": -0.368}
{"sequence": "GGUCACGUCUCAAUCAACUCAUCGUCAGGAGUUUCCUCCUGUUUUCUCAACAGCUCGCAGUCAAG", "binding signal (log2 fold change)": 0.127}
{"sequence": "GGUCACGUCUCAAUCAACUCUUCCCCAGGAGUUUACUCCUGCAAAUUCAACAGCUCGCAGUCAAG", "binding signal (log2 fold change)": 0.0676}
{"sequence": "GGUCACGUCUCAAUCAACUCAUCCCCCAGGGAAAGCCCUGGCAAUUUCAACAGCUCGCAGUCAAG", "binding signal (log2 fold change)": -0.135}
{"sequence": "GGUCACGUCUCAAUCAACUCUUCCUCCAGGGAAACCCCUGGUUAAUUCAACAGCUCGCAGUCAAG", "binding signal (log2 fold change)": -0.249}
{"sequence": "GGUCACGUCUCAAUCAACUCUAUUCCAGGAGUUUACUCCUGCAAAUUCAACAGCUCGCAGUCAAG", "binding signal (log2 fold change)": -0.177}
{"sequence": "GGUCACGUCUCAAUCAACUCAUCCUCCAGGGAAACCCCUGGUUAACUCAACAGCUCGCAGUCAAG", "binding signal (log2 fold change)": 0.221}
{"sequence": "GGUCACGUCUCAAUCAACUCUACGCCAGGAGUUUUCUCCUGUUAAUUCAACAGCUCGCAGUCAAG", "binding signal (log2 fold change)": -0.0622}
{"sequence": "GGUCACGUCUCAAUCAACUCUUUUUCAGGAGUUUUCUCCUGCAAUGUCAACAGCUCGCAGUCAAG", "binding signal (log2 fold change)": -0.0537}
{"sequence": "GGUCACGUCUCAAUCAACUCAUUUCCAGGAGUUUACUCCUGCUAACUCAACAGCUCGCAGUCAAG", "binding signal (log2 fold change)": 0.0184}
{"sequence": "GGUCACGUCUCAAUCAACUCAAAAGAGGGGGGGAAAACCCCUUUGCCCUCAAACUCAACAGCUCGCAGUCAAG", "binding signal (log2 fold change)": 0.0219}
{"sequence": "GGUCACGUCUCAAUCAACUCUUUCUCCAGGGAAAUCCCUGGCUAAUUCAACAGCUCGCAGUCAAG", "binding signal (log2 fold change)": 0.097}
